According to PubChem BioAssay AID743279 (National Center for Advancing Translational Sciences (NCATS), 2014):
Hit rate of the full screen: of about 360,000 compounds, about 17,000 (4.7%) were called active. The shares of active, inactive and inconclusive entries below differ from those in the screen. No stated cut-off is given here; in the data, active means activity change below about -50%; inconclusive means mostly about -30% to -49%; inactive means weaker than that.

Assay: qHTS for Inhibitors of Inflammasome Signaling: IL-1-beta AlphaLISA Primary Screen
Conditions: THP-1 LPS/ATP IL-1B secretion, 16 h; at 57.5 µM, stronger effect = lower value
Procedure, shortened: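 THP-1 cells pretreated 1 hr with compounds (up to 57.5 uM final), then stimulated with LPS (250 ng/mL final) plus ATP (1.25 mM final); secreted IL-1B measured by AlphaLISA after 16 hr, decreased signal indicating inhibition.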
On the % scale 0 is the no-effect control and ±100 the full control effect.

Compound | activity change
Cc1noc(/C=C/N(C)C)c1S(=O)(=O)N(C)CC(=O)N1CCc2ccccc21 | inactive: 11.4%
Cc1cccc(N(CC(=O)NC2CCCC2)C(=O)c2cc3cc4cccc(C)c4nc3s2)c1C | inconclusive: -43.9%
NS(=O)(=O)c1ccc(NC(=O)c2cccc(Cl)c2)cc1 | inconclusive: -47.8%
COc1ccc(C(O)c2nc(-c3cccc(F)c3)cs2)cc1 (stereo not given) | active: -93.3%
Cc1ccc(NC(=O)CNC(=O)c2cccs2)cc1S(=O)(=O)Nc1ccc(Cl)cc1 | inconclusive: -46.9%
COc1ccc(/C=C2\SC(=S)N(CC(=O)N(C)C3CCS(=O)(=O)C3)C2=O)cc1 (stereo not given) | inconclusive: -32.2%
CCN1C(N(C)CCc2c[nH]c3ccccc23)=N[C@@H](c2cccc(C(F)(F)F)c2)C(C(=O)OC)=C1C | inconclusive: -33.7%
CC(=O)Nc1ccc(N)cc1 | inactive: 8.21%
Cc1nc2ccccc2c2oc(C(=O)NCc3ccccn3)cc12 | inactive: 0.984%
COc1cc(C(=O)NCC(c2cccs2)N2CCOCC2)cc(Br)c1OCc1ccccc1 (stereo not given) | inactive: -8.15%
Cc1cnn(C(=S)NCc2ccco2)c1 | inactive: 1.39%
COC(=O)c1c(C)[nH]c(C(=O)OCC(=O)c2c(N)n(CC(C)C)c(=O)n(C)c2=O)c1C | inconclusive: -43.4%
NNC(=O)c1sccc1OCc1ccc(Cl)cc1Cl | inconclusive: -35.6%
COc1ccc(N2CCN(C(=O)COC(=O)c3ccccc3OCc3ccc(F)cc3)CC2)cc1 | inactive: 12.8%
Cc1cc(Oc2ccc(C#N)cc2)nc(NCc2ccccc2)n1 | inconclusive: -35.6%
CCOC(=O)c1ccccc1NC(=O)C1CC(=O)N(C2CCCCC2)C1 (stereo not given) | inactive: -23.8%
O=C(O)CSc1nnc(Cn2nnc3ccccc32)n1CCc1ccccc1 | inconclusive: -32.2%
Cc1cc(C)c(C#N)c(Sc2nc(C)c([N+](=O)[O-])c(C)c2C#N)n1 | inconclusive: -41.8%
CNNC(=S)Nc1cccc(SC)c1 | inactive: 10.9%
Cc1ccc(NC(=O)Nc2ccon2)cc1 | inconclusive: -38.2%
COc1ccc(N(S(=O)(=O)c2ccccc2)S(=O)(=O)c2ccccc2)c(N)c1 | inactive: 17.4%
Cc1ccc(Cl)cc1N1CCN(C(=O)Cn2ccc3ccccc3c2=O)CC1 | active: -65.6%
CCCS(=O)(=O)N1CCCC(C(=O)Oc2ccc(OC)cc2)C1 (stereo not given) | inactive: 22.4%
CCC(C)NC(=O)c1cc2c(=O)n(CC)c3ccccc3c2s1 (stereo not given) | inconclusive: -49.7%
Cn1cccc1/C=N/N1CCN(Cc2cccc3ccccc23)CC1 | inconclusive: -42.8%
